Paper PMC12040169 (PLOS Biology, 2025)
The other results are listed elsewhere or left out.

Each compound was assayed on T1, C. trachomatis L2/434/Bu expressing GFP (CTL2-GFP). Conditions: total inclusion area; 28.5 h, 10 µM; inhibitor.
T1 construct: L2/434/Bu GFP intracellular growth in HeLa cells
Set-up: species or system HeLa; C. trachomatis total inclusion area by high-content imaging, normalised to DMSO
Summary of the method: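 High-content imaging followed the bulk GFP/resorufin measurement: fixed, Hoechst-stained cells were scored for GFP inclusions and host nuclei per well. Total inclusion area and count served as growth proxies, nuclei number as the viability proxy. MIC calculation matched the bulk assay.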
`CCC(CN1CCOCC1)NC(=O)Cc1coc2cc(C)c(C)cc12` (stereo not shown) [CBK282811] was tested, and the “% of control remaining” value was 83.2744.
In the case of `Cc1c(C(=O)N2CCC[C@@H]2CO)nnn1Cc1ccc(F)cc1F` [CBK304071], the “% of control remaining” value is reported as 48.282.
In the case of `Cc1ccc(-c2cc(CC3(C(=O)N(C)C)CCCN(C)C3)on2)cc1` (stereo not shown) [CBK281695], the “% of control remaining” value is reported as 90.9781.
In the case of `NS(=O)(=O)c1cc(C(=O)OCCNC(=O)c2ccccc2)c(Cl)cc1Cl` [CBK265193], the “% of control remaining” value is reported as 103.207.
In the case of `O=C(O)CCc1ccc(-c2ccccc2)n1CC1CCCO1` (stereo not shown) [CBK267955], the “% of control remaining” value is reported as 94.0533.
In the case of `CN(CC(=O)O)S(=O)(=O)c1ccc(F)c2ccccc12` [CBK268447], the “% of control remaining” value is reported as 109.781.
In the case of `COc1cc(CN2CCN(C/C=C/c3ccccc3)CC2)cc(I)c1O` [CBK261882], the “% of control remaining” value is reported as 91.489.
For `N#Cc1c(O)nc(SCC(=O)Nc2ccc(Oc3ccccc3)cc2)nc1-c1ccccc1` [CBK266607], the “% of control remaining” value was 105.759.
With `OCCN(CCO)c1cncc(-c2ccc(F)c(Cl)c2)n1` [CBK066015] the “% of control remaining” value was 162.602.
With `CC(C)(C)OC(=O)NCCNCc1ccccc1Br` [CBK056693] the “% of control remaining” value was 123.685.
With `Cc1cnc2[nH]c(C(C)C)c(CN(C)C)c2c1` [CBK284758] the “% of control remaining” value was 104.027.
In the case of `CCOC(=O)NC(=O)CSc1nnc(C2COc3ccccc3O2)n1-c1ccccc1` (stereo not shown) [CBK297884], the “% of control remaining” value is reported as 126.436.
`Cc1cnc(CNC(=O)/C=C/c2ccc(C(C)C)cc2)cn1` [CBK149625] was tested, and the “% of control remaining” value was 82.8853.
In the case of `O=[N+]([O-])c1cccc(S(=O)(=O)NCc2ccccn2)c1` [CBK263669], the “% of control remaining” value is reported as 95.8782.
`CC(C)(C)C(=O)NC(NC(=S)Nc1sc2c(c1C(N)=O)CCCC2)C(Cl)(Cl)Cl` (stereo not shown) [CBK261052] was tested, and the “% of control remaining” value was 89.8524.
`CC(C)(C)OC(=O)Nc1cc(Cl)ccc1C(=O)O` [CBK200024] was tested, and the “% of control remaining” value was 131.742.
In the case of `COCc1ccccc1Cn1cnc2ccccc21` [CBK267496], the “% of control remaining” value is reported as 69.9434.
For `CC(C)NC(=O)NC[C@H]1C[C@@H]2CC[N@]1C[C@@H]2CN1CCN(c2ncccn2)CC1` [CBK289116], the “% of control remaining” value was 76.9693.
In the case of `CC(C)NC(=O)CCNc1ncc(C(N)=O)cc1Cl` [CBK306373], the “% of control remaining” value is reported as 52.5933.
In the case of `O=C(O)CCCCCNc1ncnc2sc3c(c12)CCCC3` [CBK077446], the “% of control remaining” value is reported as 79.2633.
For `CCn1c2ccccc2c2cc(Nc3cc(-c4ccc(OC(F)(F)F)cc4)ncn3)ccc21` [CBK090842], the “% of control remaining” value was 107.228.
For `COc1ccc(C2CC(c3ccccc3O)=NN2)cc1` (stereo not shown) [CBK287281], the “% of control remaining” value was 95.8576.
`Nc1ncc(-c2cc3ccccc3s2)nc1-c1ccc(CCC(=O)O)cc1` [CBK064134] was tested, and the “% of control remaining” value was 129.044.
With `Cc1ccc(S(=O)(=O)Nc2c(C(=O)N3CCOCC3)[nH]c3ccccc23)cc1` [CBK050066] the “% of control remaining” value was 104.396.
In the case of `COc1ccccc1C1OC(=O)C[C@@H]1C(=O)Nc1cc(C(C)(C)C)on1` (stereo partly shown) [CBK021439], the “% of control remaining” value is reported as 32.7771.
With `c1cnc(N2CCN(CCN3CCOCC3)CC2)c(OCCN2CCOCC2)n1` [CBK082899] the “% of control remaining” value was 99.4935.
For `COc1ccc(Br)cc1S(=O)(=O)NCc1cccnc1` [CBK264023], the “% of control remaining” value was 98.6422.
`CCNC(=O)Nc1ncc(-c2ccc(Oc3ccccc3)cc2)c2cccnc12` [CBK070636] was tested, and the “% of control remaining” value was 109.322.
For `CN(C)/C=N/c1nc2c(ccn2C2CC(O)C(CO)O2)c(=O)[nH]1` (stereo not shown) [CBK201276], the “% of control remaining” value was 118.517.
For `CN1CCN(c2ccccc2NC(=O)c2cccc3c(Br)cccc23)CC1` [CBK267894], the “% of control remaining” value was 78.6419.
With `CC1CCN(S(=O)(=O)c2ccc(C(=O)N[C@@H](C)C(=O)O)cc2)CC1` [CBK297106] the “% of control remaining” value was 98.7489.
`Cc1ccccc1-c1ccc(C(=O)N2CCN(C)CC2)c(NCc2cccnc2)n1` [CBK076125] was tested, and the “% of control remaining” value was 82.4414.
With `CCOC(=O)Cc1csc(SC(C)C(=O)N2CCc3ccccc3C2)n1` (stereo not shown) [CBK305586] the “% of control remaining” value was 15.4913.
For `CN(Cc1ccccc1N1CCOCC1)C(=O)Cc1cn2ccsc2n1` [CBK305830], the “% of control remaining” value was 62.7825.
`CS(=O)(=O)N[C@H]1C[C@H]2C(=O)Nc3ccc(-c4ccc(F)cc4F)cc3C(=O)N2C1` [CBK289368] was tested, and the “% of control remaining” value was 93.872.
For `CC(=O)Nc1ccc(S(=O)(=O)N(C)CC(=O)O)cc1` [CBK267570], the “% of control remaining” value was 92.6653.
In the case of `O=C(Nc1cccc(C=Cc2ccccn2)c1)c1c[nH]nc1-c1ccc(F)cc1` [CBK295335], the “% of control remaining” value is reported as 87.9875.
In the case of `Cc1ccc(C)n1C1CC(C)(C)NC(C)(C)C1` [CBK019116], the “% of control remaining” value is reported as 46.6745.
With `COc1ccc(C2CCCN2C(=O)CC2CCN(C(=O)CC3CCCCC3)CC2)cc1` (stereo not shown) [CBK286263] the “% of control remaining” value was 79.5583.
`COc1ccc(CC(=O)N2CCCC2c2cccc(Cc3cccc(F)c3)n2)cc1` (stereo not shown) [CBK286220] was tested, and the “% of control remaining” value was 102.641.
`CC(C)CN1CC(C(=O)NCc2ccccc2-n2ccnc2)CC1=O` (stereo not shown) [CBK282189] was tested, and the “% of control remaining” value was 87.9025.
In the case of `COc1ccc(C(=O)Nc2ccc(S(=O)(=O)Nc3nccs3)cc2)cc1I` [CBK263880], the “% of control remaining” value is reported as 52.2804.
`O=C(C1CC1)N1CCC(c2[nH]ncc2-c2ccncc2)CC1` [CBK284238] was tested, and the “% of control remaining” value was 69.2287.
With `Cc1c(S(=O)(=O)Nc2ccnn2C)cnn1-c1ccccc1` [CBK062079] the “% of control remaining” value was 99.8198.
In the case of `O=C(NCc1ccc2c(c1)CCCO2)C1CC2C=CC1C21CC1` (stereo not shown) [CBK281503], the “% of control remaining” value is reported as 89.8657.
With `CC(NC(=O)c1cccc(-n2cnnc2)c1)c1ccc2c(c1)CCC2` (stereo not shown) [CBK282707] the “% of control remaining” value was 96.6999.
In the case of `O=C(Nc1cccc([N+](=O)[O-])c1)c1ccc(CSc2ccccc2)cc1` [CBK265295], the “% of control remaining” value is reported as 100.68.
For `CC(=O)NC[C@H]1CN(c2ccc3c(c2)CCN(C(=O)Oc2ccccc2)CC3)C(=O)O1` [CBK018498], the “% of control remaining” value was 2.421.
For `Cc1ccc(Cn2nc(NC(=O)C3CCCCC3)c3ccccc32)cc1` [CBK048217], the “% of control remaining” value was 126.659.
With `O=S(=O)(c1ccccc1)N1Cc2cccc3[nH]cc(c23)C1` [CBK153275] the “% of control remaining” value was 98.7385.
With `C[C@@H](Cn1nc2c(cc1=O)CCCC2)NC(=O)c1ccc(F)cc1` [CBK284562] the “% of control remaining” value was 108.484.
For `COc1cc(C)c(Nc2cccc(/C=C/c3ccccc3)n2)cc1OC` [CBK037725], the “% of control remaining” value was 88.1766.
With `Nc1ncc(-c2ccc(C(=O)N3CCOCC3)cc2)nc1-c1ccsc1` [CBK200422] the “% of control remaining” value was 90.1045.
For `COc1ccc(-c2nnc3c4ccccc4c(C)nn23)cc1S(=O)(=O)N1CCCCC1` [CBK266640], the “% of control remaining” value was 89.8648.
For `CCOc1ccccc1N1CCN(C(C(=O)O)c2c[nH]c3ccc(CO)cc23)CC1` (stereo not shown) [CBK286816], the “% of control remaining” value was 92.6777.
With `O=C(O)CCC(=O)N[C@H]1CCN2C(=O)c3cc(-c4ccc(Cl)cc4)ccc3NC(=O)[C@H]12` [CBK289275] the “% of control remaining” value was 100.277.
`CC(=O)c1sc2nc(-c3ccccc3)nc(C)c2c1N` [CBK115368] was tested, and the “% of control remaining” value was 83.9701.
For `O=C(O)c1nccnc1-c1ccc(Cn2ccc3ccccc32)cc1` [CBK050811], the “% of control remaining” value was 115.867.
For `Cc1[nH]c2ccccc2c1/C=N/NC(=O)C1COc2ccccc2O1` (stereo not shown) [CBK261482], the “% of control remaining” value was 115.278.
`CCCC/C=C/c1cncc(NC2CCC(N)CC2)n1` (stereo not shown) [CBK037827] was tested, and the “% of control remaining” value was 97.549.
In the case of `CC(=O)Nc1cccc(-c2nccnc2N2CCCCC2CCO)c1` (stereo not shown) [CBK036591], the “% of control remaining” value is reported as 117.18.
`Cc1ccc(OCC(=O)NCC2CCN(c3cnn(C)c(=O)c3)C2)cc1` (stereo not shown) [CBK306693] was tested, and the “% of control remaining” value was 88.0184.
For `CC(C)n1ncc2cc(C(=O)Nc3ncccc3O)cnc21` [CBK305751], the “% of control remaining” value was 90.3504.
For `CCCCc1ccc(-c2nc3ncccc3cc2O)cc1` [CBK073702], the “% of control remaining” value was 69.7048.
For `CCN(CC(=O)Nc1ccc(OC)c(Cl)c1)S(=O)(=O)c1ccc2ccccc2c1` [CBK267910], the “% of control remaining” value was 103.114.
With `Cc1cc(NS(=O)(=O)c2ccc(Nc3nc(-c4ccccn4)cs3)cc2)no1` [CBK263302B] the “% of control remaining” value was 22.0676.
For `CC(=O)N1C[C@H](c2cccc(C)c2)[C@H]2CN(C3CCCC3)CC[C@H]21` [CBK283369], the “% of control remaining” value was 108.558.
For `CCOc1ccccc1/C=N/Nc1ccccc1[N+](=O)[O-]` [CBK261673], the “% of control remaining” value was 109.799.
In the case of `O=C(c1ccco1)N(CCCn1ccnc1)c1nc2c(F)cccc2s1` [CBK287758], the “% of control remaining” value is reported as 99.7431.
In the case of `Cn1ccnc1C(NC(=O)[C@@H]1C[C@@H]2C=C[C@H]1C2)c1ccc(F)cc1` (stereo partly shown) [CBK281483], the “% of control remaining” value is reported as 97.2136.
In the case of `Cc1ccc(OCc2nnc(SCC(=O)c3cccs3)n2-c2ccccc2)cc1C` [CBK265033], the “% of control remaining” value is reported as 110.171.
With `O=C(Nc1ccc(Cc2ccc(O)c(NC(=O)c3ccccc3F)c2)cc1O)c1ccccc1F` [CBK265766] the “% of control remaining” value was 93.0438.
For `CN1CCN(c2cccc(-c3ccc(CNC(=O)OC(C)(C)C)cc3)n2)CC1` [CBK037641], the “% of control remaining” value was 123.579.
With `O=C(O)c1c(Br)c(Br)c(Br)c(Br)c1C(=O)NCCc1ccccc1` [CBK261702] the “% of control remaining” value was 92.6826.
With `C=C(C)CN1CCN(Cc2c[nH]nc2C(C)(C)C)CC1` [CBK282827] the “% of control remaining” value was 79.3584.
`CCNC(=S)N1CCN(CCNC=C2C(=O)CC(C)(C)CC2=O)CC1` [CBK263661] was tested, and the “% of control remaining” value was 106.077.
In the case of `COc1cc(OC)c(NC(=O)C(C)Oc2ccc(Cl)c(C)c2)cc1Cl` (stereo not shown) [CBK269697], the “% of control remaining” value is reported as 98.1893.
For `CCOC(=O)Nc1ccc2c(c1)N(C(=O)CN1CCN(C)CC1)c1ccccc1CC2` [CBK278194C], the “% of control remaining” value was 96.4397.
With `CCn1cc(C(=O)Nc2nccs2)c(=O)c2ccc(C)nc21` [CBK307628] the “% of control remaining” value was 111.082.
